This list was built around the results that the source calls inconclusive (neither active nor inactive); the mix of calls is not that of the screen. A call without a number means that no potency is given here. For some of these results: Potencies of inconclusive entries are doubtful fits and often do not repeat. Calls of active or inactive are those of the source. Unless noted, the call rests on the fitted dose curve; in most records, active means well fitted curve in the direction sought with a large enough effect; inconclusive means small, poorly fitted or top-dose-only effect, or another doubt; inactive means no such curve, though single readings can be large; an effect the other way counts as inactive or inconclusive.
Experiments:
[1] = P-glycoprotein substrates identified in KB-8-5-11 adenocarcinoma cell line, qHTS therapeutic library screen (AID 1346987); conditions: activity change, negative = cytotoxicity: at 44.5 µM (top of the series); further: nearly all actives have a fitted effect of over 65% in size
In short: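 In this qHTS, P-gp-rich KB-8-5-11 cells received library compounds across a concentration range. Viability was quantified by luminescence after 72 h at 37 degree C.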

HaCat = test: Cytotoxic Profiling of Annotated Libraries Using Quantitative High-Throughput Screening (AID 1296008); conditions: Five cell lines viability, CellTiter-Glo ATP luminescence, 48-72 h; max response: stronger effect = lower value; further: nearly all actives have a fitted effect of over 60% in size; further: potency means the concentration at half of the fitted maximal effect
In short: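 Cells exposed to compounds for 48 or 72 hr at 37 degrees Celsius. Viability read as ATP-coupled luminescence with CellTiter-Glo after 10 min at room temperature.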

OV90 = test: Primary qHTS to identify gynecologic anti-cancer compounds using libraries of approved drugs and bioactive compounds (AID 1345084); conditions: Gynecologic cancer cell panel viability, ATPlite luminescence, 48 h; series mostly up to 57.5 µM; further: nearly all actives have a fitted effect of over 55% in size; further: potency means the concentration at half of the fitted maximal effect
In short: (§1)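 Cell viability after 48 h drug treatment, ATPlite luminescence readout; five doses.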

SKOV3 = test: as above; conditions: Gynecologic cancer cell panel viability, ATPlite luminescence, 48 h; series mostly up to 57.5 µM
In short: as §1

[2] = qHTS of pediatric cancer cell lines to identify multiple opportunities for drug repurposing: Primary screen for DAOY cells (AID 1347090); further: nearly all actives have a fitted effect of over 55% in size
In short: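 Viability measured as metabolically active cells via CellTiter-Glo luminescence following 48 hours of compound exposure, 11-point dilutions in confirmatory testing. 500-1,000 cells/well plated 5 hours before dosing; controls were DMSO and 2.3 µM bortezomib.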

[3] = qHTS of pediatric cancer cell lines to identify multiple opportunities for drug repurposing: Primary screen for Rh18 cells (AID 1347102); further: nearly all actives have a fitted effect of over 65% in size
In short: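 Viability after 48 h compound treatment at 37C, 500-1,000 cells/well, read as ATP luminescence with CellTiter-Glo. Primary screens used 11-point (MIPE, 0.78 nM-46 µM) or 8-point (NPC, 0.59 nM-46 µM) final concentrations; follow-up screens used 11-point dilutions.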

[4] = qHTS of pediatric cancer cell lines to identify multiple opportunities for drug repurposing: Primary screen for OHS-50 cells (AID 1347103); conditions: OHS-50 osteosarcoma viability, CellTiter-Glo luminescence, 48 h; activity change, negative = cytotoxic: at 57.3 µM (top of the series); further: nearly all actives have a fitted effect of over 40% in size
In short: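 Cells (500-1,000/well) rested 5 h, then received compounds for 48 h; metabolically active cells were measured by CellTiter-Glo luminescence. Final concentrations spanned up to 46 µM (MIPE, 11-point) or 0.59 nM-46 µM (NPC, 8-point) in primary screens, 11-point in follow-ups.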

[5] = qHTS of pediatric cancer cell lines to identify multiple opportunities for drug repurposing: Primary screen for RD cells (AID 1347104); further: nearly all actives have a fitted effect of over 55% in size
In short: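 Luminescence from CellTiter-Glo served as readout of metabolically active cells after 48 h compound exposure. Titrations: MIPE 11-point, from 0.78 nM; NPC 8-point, from 0.59 nM (final). Concentration-response curves came straight from the primary screen.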

[6] = A High-Content qHTS Against Drug Library for the Identification of Small Molecules that Inhibit DYT1 Early Onset Primary Dystonia-Associated Cell Pathology (AID 1645839; calls by dose curve)
In short: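 Cells were seeded and left for 24 h, then dosed with compound alongside tetracycline induction of mutant EGFP-TorsinA. They were incubated for 48 h, fixed in 4% paraformaldehyde, permeabilized and imaged for mislocalization (%pathology) and cell count.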

HeLa = test: Primary qHTS to identify gynecologic anti-cancer compounds using libraries of approved drugs and bioactive compounds (AID 1345084); conditions: Gynecologic cancer cell panel viability, ATPlite luminescence, 48 h; series mostly up to 57.5 µM; further: nearly all actives have a fitted effect of over 55% in size; further: potency means the concentration at half of the fitted maximal effect
In short: as §1

Hek293T = test: as above; conditions: Gynecologic cancer cell panel viability, ATPlite luminescence, 48 h, control line for the selectivity index; series mostly up to 57.5 µM
In short: as §1

JEG-3 = test: as above; conditions: Gynecologic cancer cell panel viability, ATPlite luminescence, 48 h; series mostly up to 57.5 µM
In short: as §1

[7] = tested on: Zika virus NS2B-NS3 protease (unlinked complex); test: Primary screen GU Rhodamine qHTS for Zika virus inhibitors: Unlinked NS2B-NS3 protease assay (AID 1347159); conditions: Recombinant ZIKV NS2B-NS3 protease, Rhodamine110 substrate fluorescence; activity change, negative = inhibition: at 107 µM (top of the series); further: nearly all actives have a fitted effect of over 60% in size
In short: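 Percent inhibition came from the 15-min rise in Rhodamine110 fluorescence (1.5 microM substrate, ~15% conversion), normalized to no-inhibitor and no-enzyme wells and Hill-fitted. Unlinked protease, 25 nM, pH 8.0 Tris buffer; compounds up to 114 microM, 15-min preincubation.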

[8] = Primary redox qHTS assay for identification of artifact compounds. (AID 1845223); further: potency means the concentration at half of the fitted maximal effect
In short: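 Redox-cycling detection via DTT (250 uM final) oxidation coupled to Amplex Red (25 uM)/HRP (250 mU/mL) in HBSS. 15 min preincubation plus 30 min after DTT, room temperature. Ex/Em 525/598 nm; 4-parameter Hill fit against DMSO and 10 uM DA3003.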

Es-2 = test: Primary qHTS to identify gynecologic anti-cancer compounds using libraries of approved drugs and bioactive compounds (AID 1345084); conditions: Gynecologic cancer cell panel viability, ATPlite luminescence, 48 h; series mostly up to 57.5 µM; further: nearly all actives have a fitted effect of over 55% in size; further: potency means the concentration at half of the fitted maximal effect
In short: as §1
Tags describe the fitted curve by direction and shape.

With COC(=O)C1=CO[C@@H](O[C@@H]2O[C@H](CO)[C@@H](O)[C@H](O)[C@H]2O)[C@@H]2[C@@H](C(=O)OC)[C@@H](O)C(O)[C@H]12 (some centres undefined) the Potency [1] was “inactive”, the outcome (HaCat) was “inactive” and the Potency (OV90) was “inactive”. The Potency (SKOV3) was inconclusive: 8.91 µM [rising, partial curve, poor fit].

With C[C@@H]1C[C@H]2[C@@H]3CCC4=CC(=O)C=C[C@]4(C)[C@@]3(F)[C@@H](O)C[C@]2(C)[C@@]1(O)C(=O)COC(=O)c1ccncc1 the Potency [2] was “inactive”, the Potency [3] was “inactive” and the Potency [4] was “inactive”. The Potency [5] was “inactive”, the Potency [6] was “inactive” and the Potency (HaCat) was inconclusive: 0.596 µM [inhibitor, full curve]. For the same molecule, the Potency (HeLa) was “inactive”, the Potency (Hek293T) was “inactive” and the Potency (JEG-3) was “inactive”.

For CC1OC2OC(=O)C3(C)CC4=C(CO)C5=C(CC(=O)C4(C)C(C1=O)C23)C(C)(C)OC(=O)C5 (centres undefined), the Potency (HaCat) was inconclusive: 15.9 µM [inhibitor, single point] and the Potency (Hek293T) was “inactive”.

For CC1=C(C)C(=O)OC(C(C)(O)C2CCC3C4CC=C5CC(OC6OC(COC7OC(CO)C(O)C(O)C7O)C(O)C(O)C6O)CC(O)C5(C)C4CCC32C)C1 (centres undefined), the Potency [7] was “inactive”, the Potency [8] was inconclusive: 1.78 µM [activator, full curve] and the max response (HaCat) was inactive: -5.11%. For the same molecule, the Potency (Es-2) was “inactive”.

Source: PubChem BioAssay (NCATS)
